In PubChem BioAssay AID2107 (National Center for Advancing Translational Sciences (NCATS), 2009):
The campaign covered roughly 240,000 compounds. About 20 (0.008%) were called active. The shares of active, inactive and inconclusive entries below differ from those in the screen. Calls come from the whole dose curve; as a rule, active = well fitted inhibition curve with a large enough effect; inconclusive = small, poorly fitted or top-dose-only effect, or effect the other way; inactive = flat fitted curve, though single readings scatter. No potency is given beside an inconclusive call; the fits are too rough.

Each molecule was assayed against Alpha-galactosidase A (Homo sapiens) (UniProt P06280) (assay: qHTS Assay for Inhibitors and Activators of Human alpha-Galactosidase From Spleen Homogenate). Conditions: 4MU-alpha-Gal fluorescence, 40 min; activity change, negative = inhibition: at 80 µM (top of the series).
How it was run: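 Inhibition or activation of alpha-galactosidase in human spleen homogenate is scored by 4-MU fluorescence after 40 min at 37C, pH 5.0, with 1 mM substrate. AC50s come from concentration-response fitted to the Hill equation.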
Potency is the fitted concentration of half-maximal effect; tags give direction and shape of the fitted curve.
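Throughout, for activity change, negative = inhibition: 0% = enzyme with vehicle and -100% = no enzyme basal signal.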

Chain of UniProt P06280 (P06280 whole entry, looked up): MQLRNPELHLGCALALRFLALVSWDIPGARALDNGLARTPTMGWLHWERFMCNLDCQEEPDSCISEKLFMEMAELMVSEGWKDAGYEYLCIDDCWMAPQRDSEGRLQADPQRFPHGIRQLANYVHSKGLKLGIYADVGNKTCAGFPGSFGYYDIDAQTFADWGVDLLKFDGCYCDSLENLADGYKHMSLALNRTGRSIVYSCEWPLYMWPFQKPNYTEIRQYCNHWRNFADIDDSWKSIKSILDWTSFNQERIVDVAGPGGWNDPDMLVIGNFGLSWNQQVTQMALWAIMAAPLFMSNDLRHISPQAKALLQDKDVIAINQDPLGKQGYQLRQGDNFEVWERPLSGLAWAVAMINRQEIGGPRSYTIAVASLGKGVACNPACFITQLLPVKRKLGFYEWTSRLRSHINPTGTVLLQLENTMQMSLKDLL

SMILES	Potency	activity change, negative = inhibition
NC(=O)c1sc2nc(N3CCCCC3)c3c(c2c1N)CCCC3	inconclusive [activator, partial curve]	–
Nc1ccc2nc(-c3cccs3)[nH]c2c1	inconclusive [activator, single point]	–
O=C(Nc1ccc(N2CCN(C(=O)c3ccccc3)CC2)c(Cl)c1)c1ccc(Br)o1	inactive	–
CCOc1ccc(NC(=O)CC2SC(=O)N(c3ccccc3)C2=O)cc1 (stereo not drawn)	inactive	–
COc1ccccc1Oc1ccc2c(c1)C(=O)N(c1ccc(Br)c3cccnc13)C2=O	inconclusive [inhibitor, partial curve]	–
Cc1c(NC2=NC3(CCCCC3)Cc3ccccc32)c(=O)n(C)n1-c1ccccc1	inconclusive [inhibitor, single point]	–
Cc1ccccc1Br	inactive	–
COc1ccc(CCNc2nc(N3CCCCC3)nc(N3CCCCC3)n2)cc1OC	inactive	–
COCCn1c(=O)[nH]c2cc(C(=O)NC(C)C)ccc2c1=O	inconclusive [activator, partial curve]	–
CCOC(=O)c1c(-c2ccccc2)csc1NC(=S)NC	inactive	–
Cc1ccc(NC(=S)Nc2c(C)n(C)n(-c3ccccc3)c2=O)cc1	inconclusive [inhibitor, single point]	–
CCC(NC(=O)OC(C)(C)C)C(=O)Oc1ccc2c3c(c(=O)oc2c1)CCC3 (stereo not drawn)	inconclusive [activator, partial curve]	–
FC(F)(F)C1=CC(c2ccc(Cl)cc2)=NCCN1	inconclusive [activator, single point]	–
CC1CC=CC2C1C(=O)N(Cc1ccccc1)C2c1ccc(-c2ccoc2)cc1F (stereo not drawn)	inactive	–
COc1ccccc1N1CCN(/N=C/c2cc(OC)c(O)c(OC)c2)CC1	inconclusive [inhibitor, single point]	–
COc1cc(/C=C2\SC(=S)N(NS(=O)(=O)c3ccc(C)cc3)C2=O)ccc1O	inactive	–
Clc1ccc(Cn2c(/C=C/c3ccco3)nc3ccccc32)cc1	inconclusive [activator, single point]	–
CO[C@H]1COC(=O)[C@H](C)COC(=O)[C@@H](Cc2ccccc2)NC(=O)C/C=C\[C@H]1C	–	inactive: 2.68% [at 17.5 µM]
COc1ccc(C(=O)/C=C/c2ccc(OC3CSC3)cc2)cc1OC	inconclusive [inhibitor, single point]	–
Cn1cc(-c2nc3cnc(N4CCNCC4)nc3n(C)c2=O)c2ccccc21	inactive	–
c1ccc(NCc2ccccn2)cc1	inactive	–
CC(C)C[C@H](NC(=O)[C@H](Cc1cnc[nH]1)NC(=O)[C@@H](N)Cc1cnc[nH]1)C(=O)NCC(=O)NCC(=O)N[C@@H](C)C(=O)N[C@@H](CCCCN)C(=O)N[C@@H](CCC(N)=O)C(=O)N[C@@H](C)C(=O)NCC(=O)N[C@@H](CC(=O)O)C(=O)N[C@H](C(=O)O)C(C)C	inactive	–
CCCCNC(=O)c1ccc(N2CCOCC2)c(NS(=O)(=O)c2ccc(OC)cc2)c1	inconclusive [inhibitor, single point]	–
CC(C)CCNC(=O)c1cc(-c2ccco2)nc2ccccc12	inconclusive [activator, single point]	–
CCN1c2ccccc2-c2nc3ccccc3n2C1c1cccs1 (stereo not drawn)	inconclusive [activator, partial curve]	–

SMILES	Potency	activity change, negative = inhibition
Nc1ccc(-c2nc3ccc(-c4nc5ccccc5o4)cc3[nH]2)cc1	inconclusive [activator, partial curve]	–
COCCn1c(-c2cccs2)nc2nc3ccccc3nc21	inconclusive [activator, partial curve]	–
Cc1ccc(-c2[nH]c(-c3ccc(C(=O)O)cc3)nc2-c2ccccc2)cc1	inconclusive [activator, single point]	–
COCCCNc1nc2c([nH]1)c(=O)[nH]c(=O)n2C	inactive	–
CCCc1cc(N2CCCC(C(=O)Nc3ccc(OC)cc3OC)C2)n2ncnc2n1 (stereo not drawn)	inactive	–
Cc1cccn2c(=O)c3cc(S(=O)(=O)c4ccc(F)cc4)c(=N)n(Cc4ccco4)c3nc12	inactive	–
CCOC(=O)CNC(=O)c1ccc2c(c1)OCCO2	inconclusive [activator, single point]	–
CC(=O)OCC[N+](C)(C)C	inactive	–
CC1(C)CCC2=C(O1)c1ccccc1C(=O)C2=O	inconclusive [inhibitor, full curve]	–
c1cc2c(cc1C1=NNC(=NC3CC3)SC1)OCCO2	inactive	–
c1ccc(SCCOCCn2cncn2)cc1	inactive	–
O=C(Cc1ccc([N+](=O)[O-])cc1)N1CCCc2ccccc21	inactive	–
OCCN(CCO)c1ccc2ccccc2c1	inconclusive [activator, partial curve]	–
Oc1cccc(Nc2ncnc3ccccc23)c1	inconclusive [inhibitor, single point]	–
CCN(CC)S(=O)(=O)c1ccc(NC(=O)C2COc3ccccc3O2)cc1 (stereo not drawn)	inconclusive [inhibitor, single point]	–
Nc1c(-c2ccccc2)nc(Cl)nc1-c1ccccc1	inconclusive [activator, single point]	–
C(=C\c1ccco1)/C1=NN(c2ccccc2)C(c2ccco2)C1 (stereo not drawn)	inconclusive [activator, partial curve]	–
O=[N+]([O-])c1cc(S(=O)(=O)N2CCCC2)ccc1NCCc1ccccc1	inactive	–
CCN1CCN(C(=O)c2cc3c(=O)n4ccccc4nc3n2Cc2ccccc2)CC1	inconclusive [activator, partial curve]	–
CC(=O)NC1=NN(C(C)=O)C2(S1)C(=O)N(C(C)C)c1ccc(C)cc12 (stereo not drawn)	inconclusive [inhibitor, full curve, poor fit]	–
COc1c(C=O)c(O)cc2c1C(=O)c1ccccc1C2=O	inconclusive [inhibitor, partial curve, poor fit]	–
CC(O)C#C[Si](C)(C)c1ccccc1 (stereo not drawn)	inactive	–
COc1ccc(CC(NC(C)=O)C(=O)NC2CCN(c3c4c(nc5ncnn35)CCC4)CC2)cc1 (stereo not drawn)	inconclusive [activator, single point]	–
COC(=O)C1=C(C(=O)OC)[C@@H]2N(C)c3ccccc3[C@@]23C[C@@H](C(=O)OC)N(S(=O)(=O)c2ccc(C#N)cc2)C3=N1	–	inactive: 11.1% [at 17.5 µM]
Cc1cc(NC(=O)c2ccccc2F)on1	inconclusive [activator, single point]	–

SMILES	Potency	activity change, negative = inhibition
CCOC(=O)c1sc2nc(N3CCOCC3)c3c(c2c1N)CCC3	inconclusive [activator, partial curve]	–
Cc1ccc(C)c(Nc2ncccc2C(=O)NCc2cccs2)c1	inconclusive [inhibitor, single point]	–
CC(C)=CCC/C(C)=C/CO/N=C1/C[C@@H](O)[C@@H](O)[C@@H]2[C@@H]3C(=O)N(C[C@@H]4CCCO4)C(=O)[C@H]3CC[C@H]12	–	inactive: 5.31% [at 17.5 µM]
CC(C)Nc1nnc(Sc2ccc(Cl)cc2[N+](=O)[O-])s1	inactive	–
CCOC(=O)c1c(NC(=O)CSc2cccc[n+]2[O-])sc(C(=O)Nc2ccccc2)c1C	inconclusive [inhibitor, single point]	–
COCCCn1c(SCC(=O)OC2CCCCC2)nnc1-c1ccco1	inactive	–
COC(=O)C(=NNc1c(C)n(C)n(-c2ccccc2)c1=O)C(=O)OC	inconclusive [inhibitor, single point]	–
CCCC1(C)Nc2ccccc2-c2nc3ccccc3n21 (stereo not drawn)	inconclusive [activator, partial curve]	–
CCOC(=O)c1oc2ccc(S(=O)(=O)n3nc(-c4ccc(OC)cc4)cc3N)cc2c1C	inactive	–
Cc1ccc(C(=O)Nc2ccc(Cl)cc2C)c(Cl)c1	inactive	–
CC(C)(C)NC(=S)N/N=C/c1cc(Br)c(O)c(Br)c1	inconclusive [activator, single point]	–
COC(=O)CSc1nnc(CNc2ccc(OC)cc2)n1C	inconclusive [inhibitor, single point]	–
CCOC(=O)N1CCN(C(=O)c2cc3c(ccc4ccccc43)oc2=O)CC1	inconclusive [activator, single point]	–
c1ccc(-c2nc3ccccn3c2NC2CCCC2)nc1	inactive	–
Cc1cccn2c(=O)c3cc(C(=O)NCCCn4ccnc4)n(C)c3nc12	inconclusive [activator, single point]	–
Cn1c(=O)n2n(c1=O)[C@H]1[C@H](O)[C@H]3O[C@@H]3/C(=N/OCc3ccccc3)[C@@H]1CC2	–	inactive: 7.08% [at 17.5 µM]
O=C(Oc1cccc(N2C(=O)CCC2=O)c1)c1ccccc1	inactive	–
C=C(C(C)=O)C(O)c1ccc(Cl)cc1 (stereo not drawn)	inactive	–
Cc1ccc(N=c2oc3cc(O)ccc3cc2C(N)=O)cc1	inconclusive [activator, partial curve]	–
CNC(=O)C1CC(=O)N/C(=N/N=C(\C)c2cccs2)S1 (stereo not drawn)	inactive	–
N#Cc1cccc(-c2cc(NCc3cccs3)ncn2)c1	inconclusive [inhibitor, partial curve]	–
CCCC(=O)NC(=S)Nc1ccccc1C(=O)OC	inactive	–
COc1cc(C2Nc3ccc4ncccc4c3C3=C2C(=O)CCC3)cc(OC)c1O (stereo not drawn)	inactive	–
